B1: EphA2 wild-type (full-length human EphA2 labelled at the C-terminus with mTurquoise or eYFP) (receptor)
chain: [letters of about 500 residues left out]IGGVAVGVVLLLVLAGVGFFIHRRRKNQRARQSPEDVYFSKSEQLKPLKTYVDPHTYEDPNQAVLKFTTEIHPSCVTRQKVIGAGEFGEVYKGMLKTSSGKKEVPVAIKTLKAGYTEKQRVDFLGEAGIMGQFSHHNIIRLEGVISKYKPMMIITEYMENGALDKFLREKDGEFSVLQLVGMLRGIAAGMKYLANMNYVHRDLAARNILVNSNLVCKVSDFGLSRVLEDDPEATYTTSGGKIPIRWTAPEAISYRKFTSASDVWSFGIVMWEVMTYGERPYWELSNHEVMKAINDGFRLPTPMDCPSAIYQLMMQCWQQERARRPKFADIVSILDKLIRAPDSLKTLADFDPRVSIRLPSTSGSEGVPFRTVSEWLESIKMQQYTEHFMAAGYTAIEKVVQMTNDDIKRIGVRLPGHQKRIAYSLLGLKDQVNTVGIPI
notes: EphA2 receptor tyrosine kinase, human, full-length, in pcDNA3.1(+); In FRET the donor copy (mTurquoise) and the acceptor copy (eYFP) were co-transfected 1:3; in FIF only the eYFP copy was used; also called EphA2 WT; WT; source: HEK293T, transiently transfected, in the plasma membrane of live cells; not shown: mTurquoise or eYFP (via a 15 amino acid (GGS)5 linker), C-terminal, kept
B2: EphA2 G539I/A542I/G553I HR mutant (full-length human EphA2 labelled at the C-terminus with mTurquoise or eYFP) (receptor)
chain: [letters of about 500 residues left out]IIGVIVGVVLLLVLAIVGFFIHRRRKNQRARQSPEDVYFSKSEQLKPLKTYVDPHTYEDPNQAVLKFTTEIHPSCVTRQKVIGAGEFGEVYKGMLKTSSGKKEVPVAIKTLKAGYTEKQRVDFLGEAGIMGQFSHHNIIRLEGVISKYKPMMIITEYMENGALDKFLREKDGEFSVLQLVGMLRGIAAGMKYLANMNYVHRDLAARNILVNSNLVCKVSDFGLSRVLEDDPEATYTTSGGKIPIRWTAPEAISYRKFTSASDVWSFGIVMWEVMTYGERPYWELSNHEVMKAINDGFRLPTPMDCPSAIYQLMMQCWQQERARRPKFADIVSILDKLIRAPDSLKTLADFDPRVSIRLPSTSGSEGVPFRTVSEWLESIKMQQYTEHFMAAGYTAIEKVVQMTNDDIKRIGVRLPGHQKRIAYSLLGLKDQVNTVGIPI
notes: EphA2 receptor tyrosine kinase, human, full-length, heptad repeat (HR) variant in the TM helix; In FRET the donor copy (mTurquoise) and the acceptor copy (eYFP) were co-transfected 1:3; in FIF only the eYFP copy was used; also called EphA2 HR; heptad repeat variant; source: HEK293T, transiently transfected, in the plasma membrane of live cells; not shown: mTurquoise or eYFP (via a 15 amino acid …)
B3: EphA2 G540I/G544I GZ mutant (full-length human EphA2 labelled at the C-terminus with mTurquoise or eYFP) (receptor)
chain: [letters of about 500 residues left out]IGIVAVIVVLLLVLAGVGFFIHRRRKNQRARQSPEDVYFSKSEQLKPLKTYVDPHTYEDPNQAVLKFTTEIHPSCVTRQKVIGAGEFGEVYKGMLKTSSGKKEVPVAIKTLKAGYTEKQRVDFLGEAGIMGQFSHHNIIRLEGVISKYKPMMIITEYMENGALDKFLREKDGEFSVLQLVGMLRGIAAGMKYLANMNYVHRDLAARNILVNSNLVCKVSDFGLSRVLEDDPEATYTTSGGKIPIRWTAPEAISYRKFTSASDVWSFGIVMWEVMTYGERPYWELSNHEVMKAINDGFRLPTPMDCPSAIYQLMMQCWQQERARRPKFADIVSILDKLIRAPDSLKTLADFDPRVSIRLPSTSGSEGVPFRTVSEWLESIKMQQYTEHFMAAGYTAIEKVVQMTNDDIKRIGVRLPGHQKRIAYSLLGLKDQVNTVGIPI
notes: EphA2 receptor tyrosine kinase, human, full-length, glycine zipper (GZ) variant in the TM helix; In FRET the donor copy (mTurquoise) and the acceptor copy (eYFP) were co-transfected 1:3; in FIF only the eYFP copy was used; also called EphA2 GZ; glycine zipper variant; source: HEK293T, transiently transfected, in the plasma membrane of live cells; not shown: mTurquoise or eYFP (via a 15 amino acid …)

Target: the molecule itself
Assay: Fluorescence Intensity Fluctuations (FIF) spectrometry; confocal microscope, plasma membrane of HEK293T cells expressing EphA2-eYFP, hypoosmotic medium; molecular brightness in 15 x 15 pixel segments, log-normal fit; with 50 nM ephrinA1-Fc

**Q.** Which “mean of the FIF molecular brightness distribution” value (from here on “mean”) does the source give for B1 here?
**A.** 5.97 ± 0.09

**Q.** How did the “mean” value turn out when B2 was run?
**A.** 5.86 ± 0.11

**Q.** Which “mean” value does the source give for B3 here?
**A.** 4.88 ± 0.07

Target: the molecule itself
Assay: Fluorescence Intensity Fluctuations (FIF) spectrometry; confocal microscope, plasma membrane of HEK293T cells expressing EphA2-eYFP, hypoosmotic medium; molecular brightness in 15 x 15 pixel segments, log-normal fit; with 200 nM m-ephrinA1

**Q.** Which “mean” value does the source give for B1 here?
**A.** 5.74 ± 0.07

**Q.** For B2, which “mean” value is on record?
**A.** 5.04 ± 0.05

**Q.** With B3 as the protein, how does the “mean” value read?
**A.** 4.93 ± 0.08

From publication PMC11263659, “Transmembrane helix interactions regulate oligomerization of the receptor tyrosine kinase EphA2” (The Journal of Biological Chemistry, 2024)
